Test in all cases: two-hybrid; Pab1/PABP1 constructs fused to the Gal4 DNA-binding domain (pOBD2), eIF4G fragments fused to the Gal4 activation domain (pOAD); yeast strain PJ694a; HIS3 reporter; cells spotted in a dilution series on synthetic complete plates lacking leucine and tryptophan, with or without histidine, 30°C, three days
Assay [1] concerns the target Pab1 RRM2 (amino acids 123-204) A158E (S. cerevisiae) (UniProt P04147).
Assay [2] deals with Pab1 RRM2 (amino acids 123-204) A185K (S. cerevisiae) (UniProt P04147).
Assay [3] concerns the target Pab1 RRM2 (amino acids 123-204) D184W (S. cerevisiae) (UniProt P04147).
For assay [4], the target named is Pab1 RRM2 (amino acids 123-204) K140A (S. cerevisiae) (UniProt P04147).
Assay [5] deals with Pab1 RRM2 (amino acids 123-204) L153V (S. cerevisiae) (UniProt P04147).
Assay [6] has as its target Pab1 RRM2 (amino acids 123-204) T145L (S. cerevisiae) (UniProt P04147).
In assay [7] the target is Pab1 RRM2 (amino acids 123-204) [G177E, L186M] (S. cerevisiae) (UniProt P04147).
In assay [8] the target is Pab1 RRM2 (amino acids 123-204), wild type (S. cerevisiae) (UniProt P04147).

No constants are given. Whether binding was seen depends on the method and setting. Some binding calls cover weakened binding; strength is not graded here.

B1: yeast eIF4G2 N-terminus (amino acids 1-341) (domain or fragment, UniProt P39936 1-341)
chain: MTDQRGPPPPHPQQANGYKKFPPHDNQYSGANNSQPNNHYNENLYSAREPHNNKQYQSKNGKYGTNKYNNRNNSQGNAQYYNNRFNNGYRLNNNDYNPAMLPGMQWPANYYAPQMYYIPQQMVPVASPPYTHQPLNTNPEPPSTPKTTKIEITTKTGERLNLKKFHEEKKASKGEEKNDGVEQKSKSGTPFEKEATPVLPANEAVKDTLTETSNEKSTSEAENTKRLFLEQVRLRKAAMERKKNGLISETEKKQETSNHDNTDTTKPNSVIESEPIKEAPKPTGEANEVVIDGKSGASVKTPQHVTGSVTKSVTFNEPENESSSQDVDELVKDDDTTEISD
B1: the binding result in assay [1] is reported as “binds”; in assay [2] it was “no binding”; in assay [3], “binds”; in assay [4], “binds”; in assay [5], “binds”; in assay [6], “binds”. The binding result in assay [7] and in assay [8] was “binds” each time.

For the origin of these results see PMC4335499.
